# Source: the supplement of paper PMC3334620
# Over roughly 33,000 sequences, “E-score (-0.5 to 0.5)” has its median near -0.035; the highest 2% begin near 0.35. Some of the results follow.
# Biological target: T1, Pdr3 (UniProt P33200)
# T1 sequence: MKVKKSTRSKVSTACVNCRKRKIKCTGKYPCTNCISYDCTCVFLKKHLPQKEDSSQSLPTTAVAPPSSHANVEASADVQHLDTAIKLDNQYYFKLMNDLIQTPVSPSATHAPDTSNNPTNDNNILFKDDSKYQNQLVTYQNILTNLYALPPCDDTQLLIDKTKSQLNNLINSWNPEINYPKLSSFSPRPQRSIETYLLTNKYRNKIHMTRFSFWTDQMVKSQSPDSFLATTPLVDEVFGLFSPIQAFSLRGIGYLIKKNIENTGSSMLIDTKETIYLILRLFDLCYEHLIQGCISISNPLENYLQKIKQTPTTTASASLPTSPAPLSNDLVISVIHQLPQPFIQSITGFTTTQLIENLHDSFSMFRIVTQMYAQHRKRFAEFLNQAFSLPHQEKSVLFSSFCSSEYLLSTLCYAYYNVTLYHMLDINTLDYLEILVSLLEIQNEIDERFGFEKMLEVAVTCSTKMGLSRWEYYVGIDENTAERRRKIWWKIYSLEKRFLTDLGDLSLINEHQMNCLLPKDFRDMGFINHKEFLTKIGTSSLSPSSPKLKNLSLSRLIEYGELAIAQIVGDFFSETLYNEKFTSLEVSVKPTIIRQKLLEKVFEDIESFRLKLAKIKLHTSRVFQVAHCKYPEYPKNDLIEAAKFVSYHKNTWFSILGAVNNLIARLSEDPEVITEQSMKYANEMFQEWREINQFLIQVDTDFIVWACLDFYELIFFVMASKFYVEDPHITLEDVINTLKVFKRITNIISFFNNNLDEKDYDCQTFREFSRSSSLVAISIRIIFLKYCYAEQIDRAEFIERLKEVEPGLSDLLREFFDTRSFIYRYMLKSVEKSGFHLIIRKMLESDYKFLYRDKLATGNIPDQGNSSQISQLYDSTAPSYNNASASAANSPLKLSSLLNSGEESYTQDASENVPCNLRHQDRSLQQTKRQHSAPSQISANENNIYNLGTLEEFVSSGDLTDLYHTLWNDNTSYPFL
# Assay: PBM E-score (8-mer binding enrichment) (E-score (-0.5 to 0.5)); higher = stronger / more preferred TF binding; most listed sequences are background and not binding sites
# Settings: protein concentration: 200 nM; construct: GST-full length
# In short: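 Using PURExpress in vitro transcription/translation, GST-tagged yeast transcription factors were made in full-length or DNA-binding-domain form. These were applied at about 100-200 nM to double-stranded universal all-10-mer Agilent arrays, and bound protein was detected with fluorescent anti-GST. Scans were normalised with masliner before the Universal PBM Analysis Suite assigned E-scores to ungapped eight-base words pooled with their reverse complements.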
row,Sequence,PBM E-score
1,GAGTAGAC,-0.125
2,CAAAGCTC,-0.16
3,GAGCGCTA,-0.0559
4,GCCAGGAA,-0.0621
5,AGTGACAT,-0.111
6,GACCGTCC,0.156
7,AACACGTA,-0.0579
8,AACGTAGG,-0.183
9,ACGCACTG,-0.118
10,AAAAGACA,0.035
11,AATCATCA,0.0158
12,CATGGAAA,0.0485
13,ACAGCAGG,-0.0446
14,GAGTGGGA,-0.0416
15,CCACGCGG,0.108
16,CCCATTAA,-0.107
17,GAAGCATA,-0.207
18,GCTATTTA,-0.0173
19,ATGACGGA,0.362
20,CTGTTTAC,-0.202
21,ACTCTGCC,-0.19
22,ACCGAGAA,0.129
23,CTCCTAAC,-0.266
24,AAACACCT,-0.139
25,TATCGTGA,-0.0671

row,Sequence,PBM E-score
1,AGGTGTAC,-0.264
2,AGTTCCAT,0.114
3,GAGTACCA,0.0132
4,GCGCTGAA,-0.0182
5,AAGAAAAA,-0.0818
6,ATGACCTG,-0.119
7,ACGCACCG,0.0557
8,CGTTGCGA,-0.0439
9,CTACTGAG,-0.101
10,TCCAAAGA,-0.105
11,CCTCAATA,-0.118
12,ATTACTGA,-0.207
13,AAGATGTG,-0.142
14,GGACTACC,-0.0457
15,ACGCCCAC,-0.0917
16,GGTTGTGA,0.0715
17,TTAGACAA,-0.0013
18,GGCGTCTA,-0.144
19,TAGCTTAA,-0.185
20,ACTATGCA,-0.119
21,TAATATAA,0.209
22,GAAGCGCC,0.181
23,GCTGACTA,-0.209
24,GACGCAAA,0.0344
25,AAGGATGC,-0.165

row,Sequence,PBM E-score
1,CCTGCTAG,-0.224
2,ACATCTCG,-0.111
3,AGGCATTC,-0.055
4,ATGCGGTC,0.21
5,AATGAGTG,0.0872
6,CTGATCGC,-0.108
7,AAGAATCC,0.0141
8,CCATGCGA,-0.0274
9,ATCACTAA,0.00382
10,CCCGCCCC,0.357
11,AGCGGCAA,0.101
12,GAGCCCCA,-0.165
13,AATTGAAC,-0.273
14,ACCCCTGG,-0.1
15,CCATACAG,-0.135
16,ACTATAGA,-0.00222
17,GTCACGCA,-0.0717
18,ACCACCGG,0.269
19,ACTCACTC,-0.0487
20,CAGCAAGC,-0.184
21,CACCACTC,0.165
22,CATTTGCA,-0.0953
23,AAGTTGAA,-0.126
24,CCATACTC,0.0674
25,ATGTCTCG,-0.0638

row,Sequence,PBM E-score
1,AGAACCTA,-0.27
2,AGTTCAAG,0.0398
3,ACCATCTA,-0.142
4,GCCTATGA,-0.016
5,AGCGCGCA,0.243
6,AATCCCTC,-0.112
7,CGAGCTTC,0.152
8,CCCAAGAA,-0.0373
9,ATAACTCG,-0.0206
10,GTTATAAC,0.0825
11,ACCTTACT,0.0457
12,TAAGGCGA,-0.115
13,GATGGATA,-0.0298
14,AATGCGAA,0.00128
15,GTACGTAA,-0.296
16,AACAGAGT,-0.0201
17,GCCATAAA,-0.024
18,AATCCAAT,0.033
19,GGTAAACC,0.0178
20,GACTAGAC,-0.268
21,CAAACACG,0.0474
22,TGCGCTAA,-0.0397
23,GCCGTTCC,0.241
24,GAAACCAC,0.0451
25,GTTACGAA,-0.00813

row,Sequence,PBM E-score
1,ACGTGCAA,-0.0369
2,CAGCCCGC,0.00736
3,AAACAATA,0.152
4,AGTCTCTC,-0.219
5,GTCTCGAA,-0.136
6,ATTGGCAG,-0.115
7,TATCTTGA,-0.0828
8,CAGCAAAG,-0.0837
9,ACGCTGCC,-0.044
10,CTTGAACA,0.0296
11,CAAGAGCC,0.0508
12,AAGCCGGA,0.392
13,AACGTCGC,-0.0426
14,CACTGGGC,-0.0984
15,GCTAATCC,0.111
16,CAAGATCG,0.0955
17,CTGTGGAA,0.0233
18,CTGTAAGC,-0.127
19,GGTGCATA,-0.00982
20,TTGAGAAA,-0.207
21,GCGGACCA,0.366
22,ATGTAATA,0.0295
23,TACAAGGA,0.111
24,GGCTCCTA,-0.169
25,AAATTCTT,-0.141

row,Sequence,PBM E-score
1,CTTCACCC,0.252
2,TATCTGCA,-0.0881
3,ACCTCCCG,0.297
4,AATCCGGT,0.294
5,CAGGGGAC,-0.0718
6,CGATGGCG,0.165
7,ACCGTCCG,0.283
8,AATTTTCA,-0.0884
9,GACACTCA,-0.0894
10,CCACTCTA,-0.0753
11,AAATATTT,-0.0497
12,CTGCTGGC,-0.103
13,TAATGCGA,-0.0735
14,CTTTCACC,-0.0498
15,ATATACCG,0.306
16,CGCAGCTA,0.0739
17,AGTACACC,-0.155
18,ACTCCACT,-0.262
19,CTGCCAGA,-0.151
20,ACAGCTTG,-0.0661
21,CCCGAACC,0.257
22,CAAACCAG,-0.137
23,CCTAAGCC,-0.215
24,CACACGCA,-0.107
25,CACACCGG,0.243

row,Sequence,PBM E-score
1,CCGGTGCG,0.318
2,CAGTGGTC,-0.0578
3,GGTCCTGA,0.103
4,GGTAACAC,0.0536
5,CCTGGTAG,-0.12
6,CCTTATAC,-0.129
7,CAGTCACG,-0.0218
8,GCTGTGTA,-0.121
9,CTCTAAGC,-0.0134
10,ACAAAGAC,-0.128
11,CATAGGGA,-0.0985
12,CCCCCTCA,-0.444
13,ATGCGAGC,-0.04
14,ACTCTGCT,-0.0489
15,CCACACTC,-0.134
16,GCACGTAC,-0.0398
17,ACACTTTC,0.0765
18,ATACAAAA,0.00884
19,CATCAGTC,-0.0411
20,ACCTAGGC,0.0314
21,ACGCAGTG,-0.179
22,ACCCCAAC,-0.0354
